Where a name gives a salt, the structure may show the parent alone.
Tested on: Na+ Channel (Site 2)
Type: binding, rat

## COc1cc(C(F)(F)F)c(OC)cc1[C@@H]1CCCNC1 [(S)-11, 3-(2,5-Dimethoxy-4-(trifluoromethyl)phenyl)piperidine Hydrochloride]
(S)-11 10 μM, n=1
  % inhibition of the specific radioligand binding: 86%
Estimated from the % inhibition data
  IC50: 1 to 10 µM

— paper PMC11089506 (Journal of Medicinal Chemistry, 2024)
